Test results reported in the supplement of paper PMC3334620.
Whole data set: some 33,000 sequences, median “E-score (-0.5 to 0.5)” near -0.04, cut for the highest 2% near 0.36. The list shows a part of the results.

Molecular target: T1, Hmlalpha2 (UniProt P0CY09)
T1 sequence: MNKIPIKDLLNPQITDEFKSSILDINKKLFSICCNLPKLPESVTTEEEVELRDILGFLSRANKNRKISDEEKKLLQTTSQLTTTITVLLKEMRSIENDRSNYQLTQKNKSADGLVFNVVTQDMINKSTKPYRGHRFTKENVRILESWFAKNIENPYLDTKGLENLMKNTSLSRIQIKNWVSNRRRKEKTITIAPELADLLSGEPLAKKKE
Assay: PBM E-score (8-mer binding enrichment) (E-score (-0.5 to 0.5)); higher = stronger / more preferred TF binding; most listed sequences are background and not binding sites
Details: protein concentration: 200 nM; construct: GST-full length
Method in brief: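 Each ungapped eight-base word and its reverse complement, pooled, received an E-score from the Universal PBM Analysis Suite. Underlying scans, normalised with masliner, recorded fluorescent anti-GST bound to GST-tagged yeast transcription factors. These were applied at about 100-200 nM to universal all-10-mer Agilent arrays double-stranded by primer extension.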

Sequence | PBM E-score
CATAAATA | 0.142
CTGAAAAC | 0.1
TCGAACGA | -0.055
ATACTGAC | 0.0396
GAGGTATC | -0.205
CCAAATAG | -0.0531
CCCACGAG | -0.222
CCGGCTAC | -0.146
AGACTGTC | -0.109
ACGTGGAG | -0.0611
CCTCTTCG | -0.127
ATGCCCTA | -0.295
CTTGCCTC | 0.0275
AGTATATA | 0.212
GCGATGGA | -0.142
AACGAGCC | 0.128
AGCTTGCC | -0.108
AGGACTCC | -0.326
CGCCCCAC | -0.207
CCACTAGA | -0.201
ACCACCTA | -0.105
ACGCGGTC | 0.186
CACTGAAC | 0.0626
ATCCCTAG | -0.00744
CTGACGCC | -0.221

Sequence | PBM E-score
CTGCCCCC | -0.223
AAAGGTAG | -0.129
AGCTCATG | 0.0858
CTCTAAAG | -0.199
ACTCATAA | -0.0412
ACGCAACC | 0.193
AAGGGCAC | -0.219
GCATTGCA | -0.00304
CGCGGCTA | 0.0299
CGGAGTCC | -0.0041
CACGACGA | 0.122
AACGGTGA | -0.0705
AATACAAT | 0.249
ATCCGTTC | 0.0296
CAAAACGA | 0.167
CAAATTAA | 0.061
ATGAGATC | 0.073
AAGTGGAG | -0.0852
TAAACAGA | 0.22
ATCACCTA | -0.0987
AATCATGC | -0.107
CTCAAGCA | -0.0177
CATTCTGC | -0.173
GTCTCGTA | 0.0905
GAGGATCC | -0.149

Sequence | PBM E-score
ACACATGC | 0.306
GAATGACC | -0.306
AATAGTTA | 0.046
ACGCCTAC | -0.0784
CCTTCCGC | -0.259
CCTCCAAG | -0.13
AATCGATA | 0.169
AGGCACCA | -0.167
ACTCATCA | -0.0754
ACCGTTAT | -0.0712
AGAGCCCG | -0.242
GAACACCA | 0.0348
ATTAACAA | 0.415
TCGATAGA | -0.00433
CACATCTC | -0.0163
TCGTTAAA | 0.126
TCATCAAA | -0.0188
ACCCATCC | -0.208
CATTAGTA | 0.152
AAGTGGGG | -0.313
AGCACTTC | 0.148
GAGCAATA | -0.186
ACAGGAAT | 0.0217
TGGGTGAA | 0.119
GACCAGGA | -0.197

Sequence | PBM E-score
GCGGCTAA | -0.128
CACCTGAG | -0.146
CGAATATC | -0.0497
AGGATAAG | -0.147
TATTCTAA | 0.186
TTCATCAA | 0.0435
TAGCATGA | 0.227
CGATCGAC | 0.049
ATTCAATA | 0.166
CAGACCCG | -0.151
ACGGGCAA | -0.174
ATCAGTAC | 0.155
CTACTATC | 0.0556
GTCTAAAC | 0.107
CAATTCAG | -0.106
TTCGTCAA | 0.0293
AAGAACGT | 0.215
CCCCATGC | -0.0157
CTAGCGAG | -0.149
AGGTAAGA | -0.0177
ATCAACAT | 0.44
CCAGTCCC | -0.223
ATTTTCAC | 0.151
CAGCGTGC | -0.0313
TGCCTCCA | -0.233

Sequence | PBM E-score
AAGCCAAC | 0.00741
AATTATAG | 0.12
GCGTATGA | 0.164
AACCAATG | 0.0425
AGGACTTG | -0.11
GCGAAGGA | -0.11
GTATAGGA | 0.0557
GCCCCAGC | -0.329
AAGTTCCC | -0.296
TGCTGCCA | -0.206
CCCATCAA | -0.0626
CACCTTCC | -0.11
ATTCCACA | 0.148
AAAGTCTA | -0.0317
ACTGACGC | -0.128
GAGAACAA | 0.0893
ATCATCTC | -0.0434
TGAATCAA | 0.211
ACGTAGAA | 0.33
GTTCAACA | 0.367
AAACACCA | -0.0494
ACGGCCCA | -0.252
ATTGGGCA | -0.112
CAGTCTAG | -0.148
AGTTTCCG | -0.0968

Sequence | PBM E-score
CTAGGTCA | -0.0803
ATCGCTGG | -0.18
CGCCCGGA | -0.244
GGTTCCAC | -0.225
CACTGCAA | 0.0779
ACGTCGCT | -0.0609
TAAGGTCA | -0.0749
AATCGGCG | -0.00313
CCATAAGG | -0.32
ACCCCTAA | -0.267
ACAAAGGT | 0.0752
ACAAACGT | 0.206
ACACACAA | 0.313
CGAGCGCC | -0.271
CCGGTTCG | -0.303
CGAGGACC | -0.0457
AGCTGAGG | -0.214
GATGCAGA | -0.187
CTAACGAG | -0.00199
CCTGAACG | -0.0873
CCAACCGA | -0.166
AGGCCCCA | -0.359
CACTAGAC | -0.139
AGCTCACA | 0.0488
ATAGTGCA | 0.0575

Sequence | PBM E-score
ACTGCTAA | -0.206
GGATCCTA | -0.154
AGCTTTAT | 0.111
ATTTCCAA | -0.0363
CTCGCGGA | -0.345
CCATCCAG | -0.194
GACATTGA | 0.0783
AAATAGCA | 0.0943
AGCCATGC | 0.0383
AGATGGGG | -0.263
AACTTAGA | 0.105
ACGAGCGT | 0.028
CGTCTGGA | -0.162
GCACGAAC | 0.194
CCATCTAA | 0.0202
GGAATCAC | -0.0376
AGAGCACG | 0.0212
AACACTAA | 0.189
GATAAGGA | 0.0436
GGAAATGA | -0.0675
AACAACTG | 0.0985
AATCACGT | 0.239
CGCTAGCA | -0.0248
ATGTCGGG | 0.2
CAGATCGA | -0.0764

Sequence | PBM E-score
AGGCCGAG | -0.104
TGGCTGAA | -0.197
CTCCAAAG | -0.0343
AAGATGCC | -0.25
ACTTTAGC | -0.225
AGGGGAAC | -0.373
CATAAACC | 0.017
CCTACTCG | -0.202
AGGTATGG | -0.317
GATACATC | 0.169
AAAAAACT | 0.0379
ATGTCTAC | 0.179
ATGTTGGA | 0.29
GCTTTCCA | -0.0557
GGTTTTCA | 0.14
CATTTCCC | 0.00326
TACTCTGA | -0.128
ATAATGCC | -0.127
CGTCCTAA | -0.108
GCGTGCAC | -0.102
CATAACGG | -0.136
GACCTAGA | -0.12
CGCGTTAC | 0.212
TTCTAAAA | 0.0933
GTTAAAAC | 0.343

Sequence | PBM E-score
CCTGTCAG | -0.241
AAGTAGCA | -0.0251
ATGGAACC | -0.167
ACTGCGCC | -0.258
AGGATTTC | -0.195
ACGGGTCT | -0.217
AAAATACA | 0.334
CGAATAGC | -0.115
CAGTCACC | -0.208
GAAGGGCA | -0.288
ATAACAAA | 0.302
ACCTTGTG | 0.17
ACAACTTA | 0.228
AGACAGGG | -0.282
GTCCGTTA | -0.0125
AGCCTGTG | -0.0945
ATCTCTAC | 0.104
GACTTTAA | -0.0185
CACTGCCG | -0.165
